# From article PMC6451091
# The list shows a part of the results. For part of these data: At the low end of the ranking, values are background and their order means little. For part of these data: Measured with an extract: partners may take part in the binding.
# Assays:
# Conditions in all cases: 20 mM HEPES pH 7.9, 100 mM NaCl, 1 mM DTT, 0.2 mg/mL BSA, 0.02% Triton X-100, 2% milk, 0.4 mg/mL salmon testes DNA; 1 h; temperature not stated; high values mean tight binding; double strand, one strand shown; sequences stand for … in GCCTAGCAC…GTGCTAGGTCTTGATTCGCTTGACGCTGCTG
# [1] = target: PU.1 (IVT) (UniProt P17947); assay: protein-binding microarray (PBM)
# [2] = target: T1, FLI1 (endogenous, THP-1 nuclear extract) (UniProt Q01543); assay: nuclear extract protein-binding microarray (nextPBM)
# T1 sequence: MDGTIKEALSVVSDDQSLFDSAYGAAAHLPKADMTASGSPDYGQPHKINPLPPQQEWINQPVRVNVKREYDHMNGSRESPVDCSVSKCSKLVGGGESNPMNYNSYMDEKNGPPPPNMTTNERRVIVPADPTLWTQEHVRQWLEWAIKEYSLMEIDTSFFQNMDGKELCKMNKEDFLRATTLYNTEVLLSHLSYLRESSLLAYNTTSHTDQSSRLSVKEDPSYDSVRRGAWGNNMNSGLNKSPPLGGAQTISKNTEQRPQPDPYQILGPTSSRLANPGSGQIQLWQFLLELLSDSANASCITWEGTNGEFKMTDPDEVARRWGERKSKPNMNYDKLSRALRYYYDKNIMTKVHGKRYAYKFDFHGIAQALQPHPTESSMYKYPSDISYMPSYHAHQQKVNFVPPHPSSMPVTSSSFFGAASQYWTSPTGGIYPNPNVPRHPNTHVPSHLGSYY
# [3] = test system: PU.1 (endogenous, THP-1 nuclear extract) + IRF8 (endogenous, THP-1 nuclear extract); assay: as above
sequence,measurement,setting,value
TCCTGGGGGAAGTGAAACTG,binding signal,[1],2.71 z-score
same,binding signal,[2],2.8 z-score
same,binding signal,[3],40.4 z-score
CTGCCAGGGAAGTGAACGCA,binding signal,[1],0.787 z-score
same,binding signal,[2],0.637 z-score
same,binding signal,[3],0.853 z-score
AAAAAAAGGAAATGTAAGTA,binding signal,[1],3.14 z-score
same,binding signal,[2],1.86 z-score
same,binding signal,[3],-0.302 z-score
TAAATGAGGAACTGAAACCA,binding signal,[1],5.87 z-score
same,binding signal,[2],2.9 z-score
same,binding signal,[3],69 z-score
GATAAGGGGAACTGAAAGCT,binding signal,[1],3.27 z-score
same,binding signal,[2],1.16 z-score
same,binding signal,[3],4.17 z-score
CAGAAAGGGAAGTGAAACTT,binding signal,[1],5.07 z-score
same,binding signal,[2],3.43 z-score
same,binding signal,[3],55.4 z-score
TGGGAGAGGAAGTGAAACTA,binding signal,[1],3.94 z-score
same,binding signal,[2],4.05 z-score
same,binding signal,[3],70.2 z-score
TGAAACAGGAAGGGAAACCA,binding signal,[1],2.5 z-score
same,binding signal,[2],2.86 z-score
same,binding signal,[3],3.04 z-score
GAAAATGGGAAGTGAAACTA,binding signal,[1],5.99 z-score
same,binding signal,[2],2.96 z-score
same,binding signal,[3],78.4 z-score
CTGGCATGGAACTGAAACTC,binding signal,[1],-0.258 z-score
same,binding signal,[2],0.218 z-score
same,binding signal,[3],10.2 z-score
CTGTCAGGGAAGTGAAAGCA,binding signal,[1],1.39 z-score
same,binding signal,[2],1.05 z-score
same,binding signal,[3],6.1 z-score
GATAAGAGGCACTGAAAGCT,binding signal,[1],-0.244 z-score
same,binding signal,[2],-0.48 z-score
same,binding signal,[3],-1.04 z-score
TGGCAGAGGAAGTGAGACTA,binding signal,[1],3.33 z-score
same,binding signal,[2],2.67 z-score
same,binding signal,[3],2.88 z-score
GGAAAGAGGAACAGAAACTG,binding signal,[1],4.28 z-score
same,binding signal,[2],2.41 z-score
same,binding signal,[3],29.6 z-score
GATAAGAGCAACTGAAAGCT,binding signal,[1],-0.681 z-score
same,binding signal,[2],-0.398 z-score
same,binding signal,[3],-0.773 z-score
CATAAGAGGAACTGAAAGCT,binding signal,[1],3.89 z-score
same,binding signal,[2],1.25 z-score
same,binding signal,[3],6.09 z-score
TGAAATAGGAAGTGAAACCA,binding signal,[1],4.47 z-score
same,binding signal,[2],3.37 z-score
same,binding signal,[3],63.6 z-score
GATAAGAGGAACTAAAAGCT,binding signal,[1],5.27 z-score
same,binding signal,[2],1.43 z-score
same,binding signal,[3],-0.418 z-score
TAAAGTAGGAACTGAAACCA,binding signal,[1],2 z-score
same,binding signal,[2],1.63 z-score
same,binding signal,[3],25.7 z-score
TGAAACAGGCAGTGAAACCA,binding signal,[1],-0.323 z-score
same,binding signal,[2],-0.183 z-score
same,binding signal,[3],9.74 z-score
GATAAGCGGAACTGAAAGCT,binding signal,[1],4.14 z-score
same,binding signal,[2],2.01 z-score
same,binding signal,[3],6.62 z-score
GATAAGAAGAACTGAAAGCT,binding signal,[1],0.31 z-score
same,binding signal,[2],0.0726 z-score
same,binding signal,[3],0.474 z-score
GATAAGAGGAACTGTAAGCT,binding signal,[1],3.92 z-score
same,binding signal,[2],1.24 z-score
same,binding signal,[3],0.173 z-score
TAAAAAGGGAAGTGAAACTC,binding signal,[1],7.11 z-score
same,binding signal,[2],3.73 z-score
same,binding signal,[3],75.9 z-score
CTGGCAGGGAACTGAATCTC,binding signal,[1],0.774 z-score
same,binding signal,[2],0.0624 z-score
same,binding signal,[3],-0.775 z-score
TGAGAGGAGAAGTCAAACCT,binding signal,[1],1.42 z-score
same,binding signal,[2],0.0483 z-score
same,binding signal,[3],-0.073 z-score
AAAAAAGAGAAGTGAAACTA,binding signal,[1],4.61 z-score
same,binding signal,[2],2.68 z-score
same,binding signal,[3],72.3 z-score
CTGGCAGGGCACTGAAACTC,binding signal,[1],-0.81 z-score
same,binding signal,[2],-0.739 z-score
same,binding signal,[3],3.76 z-score
TGGCAGAGAAAGTGAAACTA,binding signal,[1],0.431 z-score
same,binding signal,[2],-0.29 z-score
same,binding signal,[3],65.6 z-score
TAAAGGAGGAACTCAAACCA,binding signal,[1],3.38 z-score
same,binding signal,[2],1.1 z-score
same,binding signal,[3],1.19 z-score
GATAAGAGTAACTGAAAGCT,binding signal,[1],-0.246 z-score
same,binding signal,[2],-1.12 z-score
same,binding signal,[3],-0.37 z-score
TGAGAGGATAAGTGAAACCT,binding signal,[1],-0.0251 z-score
same,binding signal,[2],0.0132 z-score
same,binding signal,[3],11.1 z-score
GATAAGATGAACTGAAAGCT,binding signal,[1],-0.635 z-score
same,binding signal,[2],-0.281 z-score
same,binding signal,[3],0.561 z-score
GATAAGAGGACCTGAAAGCT,binding signal,[1],-0.213 z-score
same,binding signal,[2],-0.443 z-score
same,binding signal,[3],0.213 z-score
TCAAAGCAGAAGTGAAACTT,binding signal,[1],3.35 z-score
same,binding signal,[2],1.73 z-score
same,binding signal,[3],46.8 z-score
TAAAGGAGGATCTGAAACCA,binding signal,[1],0.0832 z-score
same,binding signal,[2],0.472 z-score
same,binding signal,[3],9.19 z-score
TGAGAGGGGAAGTGAAACCT,binding signal,[1],4.12 z-score
same,binding signal,[2],3.01 z-score
same,binding signal,[3],50.7 z-score
TAGTAGAGGAAGTGAAAGCA,binding signal,[1],3.84 z-score
same,binding signal,[2],2.9 z-score
same,binding signal,[3],17.1 z-score
TGAAACAGGAAGTGAATCCA,binding signal,[1],6.9 z-score
same,binding signal,[2],5.51 z-score
same,binding signal,[3],7.11 z-score
TGAAACAGGAAGCGAAACCA,binding signal,[1],3.62 z-score
same,binding signal,[2],4.58 z-score
same,binding signal,[3],65.2 z-score
GATAAGAGGAACTCAAAGCT,binding signal,[1],3.68 z-score
same,binding signal,[2],1.15 z-score
same,binding signal,[3],-0.102 z-score
TATTTGGGGAAGTGAAACTG,binding signal,[1],5.32 z-score
same,binding signal,[2],3.53 z-score
same,binding signal,[3],73.1 z-score
TAGAAGAGGAAGAGAAACTT,binding signal,[1],2.69 z-score
same,binding signal,[2],1.51 z-score
same,binding signal,[3],2.89 z-score
GATAAGAGGAACTGAAAGCT,binding signal,[1],4.58 z-score
same,binding signal,[2],2 z-score
same,binding signal,[3],6.11 z-score
CTGCCAGGGAACTGAAAGCA,binding signal,[1],0.492 z-score
same,binding signal,[2],-0.512 z-score
same,binding signal,[3],0.718 z-score
CAGGGAAGGAAGTGAAACTA,binding signal,[1],2.23 z-score
same,binding signal,[2],2.6 z-score
same,binding signal,[3],61.4 z-score
CAAAAGCAGAAGTGAAACTG,binding signal,[1],6.04 z-score
same,binding signal,[2],4.29 z-score
same,binding signal,[3],70.6 z-score
GAAAAGGGGAAATGAAACTA,binding signal,[1],5.44 z-score
same,binding signal,[2],3.14 z-score
same,binding signal,[3],60.4 z-score
TAAAAGAGGAAGAGAAACTA,binding signal,[1],5.29 z-score
same,binding signal,[2],2.83 z-score
same,binding signal,[3],22 z-score
AAAAAAAGGAAATGAAAGAA,binding signal,[1],3.71 z-score
same,binding signal,[2],2.38 z-score
same,binding signal,[3],0.458 z-score
CTGCCAGGGAAGTGGAAGCA,binding signal,[1],2.09 z-score
same,binding signal,[2],1.27 z-score
same,binding signal,[3],0.377 z-score
CTGCCAGGGAAGTGTAAGCA,binding signal,[1],0.66 z-score
same,binding signal,[2],0.693 z-score
same,binding signal,[3],-0.337 z-score
CTGGCAGGGAACTAAAACTC,binding signal,[1],1.1 z-score
same,binding signal,[2],0.256 z-score
same,binding signal,[3],-0.758 z-score
CTGGCAGCGAACTGAAACTC,binding signal,[1],-0.48 z-score
same,binding signal,[2],-0.624 z-score
same,binding signal,[3],7.93 z-score
TGCGAGGAGAAGTGAAACCT,binding signal,[1],1.12 z-score
same,binding signal,[2],0.154 z-score
same,binding signal,[3],23.5 z-score
CTTGCAGGGAACTGAAACTC,binding signal,[1],0.819 z-score
same,binding signal,[2],0.637 z-score
same,binding signal,[3],13 z-score
CTGCCAGGGCAGTGAAAGCA,binding signal,[1],-0.533 z-score
same,binding signal,[2],-0.0835 z-score
same,binding signal,[3],1.19 z-score
GAAATGAGGAACAGAAACTG,binding signal,[1],4.35 z-score
same,binding signal,[2],1.83 z-score
same,binding signal,[3],31.2 z-score
TTTAAAGGGAAATGAAACTG,binding signal,[1],1.39 z-score
same,binding signal,[2],1.75 z-score
same,binding signal,[3],23.1 z-score
GTCAAGAGGAACTGAAACTG,binding signal,[1],2.99 z-score
same,binding signal,[2],1.78 z-score
same,binding signal,[3],33.4 z-score
